# Measurements from PubChem BioAssay AID1476 (National Center for Advancing Translational Sciences (NCATS), 2009).
# The campaign covered roughly 200,000 compounds. About 4,500 (2.2%) were called active. The shares of active, inactive and inconclusive entries below differ from those in the screen. Calls follow the shape of the dose curve; as a rule, active = well fitted inhibition curve with a large enough effect; inconclusive = small, poorly fitted or top-dose-only effect, or effect the other way; inactive = flat fitted curve, though single readings scatter. Potencies beside an inconclusive call are fits to weak or partial responses and may not hold up.
# Biological target: Cruzipain (Trypanosoma cruzi) (UniProt P25779)
# Assay: qHTS Assay for Promiscuous and Specific Inhibitors of Cruzain (without detergent); also: nearly all actives have a fitted effect of over 40% in size;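 as to max response, negative = inhibition: plate controls were enzyme without inhibitor for no effect and buffer without enzyme for full effect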
# Conditions: purified cruzain, Z-FR-AMC fluorescence, no detergent
# How it was run: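 Detergent-free condition (0.00005% Triton X-100) in acetate buffer pH 5.5 with DTT. 1.5 nM enzyme and compound were pre-mixed 15 min, then 2 uM Z-FR-AMC substrate added; reaction progress from fluorescence change between first and third reads (60 s).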
# Potency is read from the fitted curve at half-maximal effect; tags tell the direction and shape of the fitted curve.
# Chain of UniProt P25779 (P25779 whole entry, looked up): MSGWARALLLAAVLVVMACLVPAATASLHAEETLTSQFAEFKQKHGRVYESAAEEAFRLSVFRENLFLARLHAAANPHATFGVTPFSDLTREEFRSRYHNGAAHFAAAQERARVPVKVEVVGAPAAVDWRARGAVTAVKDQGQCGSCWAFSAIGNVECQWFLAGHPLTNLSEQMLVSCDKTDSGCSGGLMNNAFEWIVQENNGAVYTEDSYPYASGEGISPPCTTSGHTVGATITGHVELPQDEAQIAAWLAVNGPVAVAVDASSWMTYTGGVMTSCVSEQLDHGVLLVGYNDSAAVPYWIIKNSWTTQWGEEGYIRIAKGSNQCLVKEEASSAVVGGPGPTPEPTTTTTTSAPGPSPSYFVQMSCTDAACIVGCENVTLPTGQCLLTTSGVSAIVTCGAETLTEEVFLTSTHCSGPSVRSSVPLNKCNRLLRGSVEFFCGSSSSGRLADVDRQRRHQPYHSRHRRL
Compound,Potency,"max response, negative = inhibition"
CC(=O)Nc1cccc(NC(=O)CSc2nnc(Cc3cccn3C)n2-c2ccc(F)cc2)c1,"inconclusive: 39.8 µM [activator, single point]",–
CCCCOc1ccc(N(CC(=O)NCC2CCCO2)C(=O)CCC(=O)Nc2cc(C)ccn2)cc1 (stereo not drawn),"inconclusive: 20 µM [activator, partial curve]",–
CCn1c(=O)cc(OCC(=O)Nc2cc(Cl)c(OC)cc2OC)c2ccccc21,–,inactive: 0.57%
CCOc1ccc(CCNC(=O)c2cc3c(-c4ccc(OC)c(OC)c4)nn(C)c3s2)cc1OCC,"inconclusive: 10 µM [activator, partial curve]",–
COc1ccc(NC(=O)CSc2nc(NS(=O)(=O)c3ccccc3)cc(=O)[nH]2)cc1,"inconclusive: 31.6 µM [inhibitor, single point]",–
Cc1ccc(N2C(=O)CSC23C(=O)N(CC(=O)Nc2ccc(C(C)C)cc2)c2ccccc23)cc1C (stereo not drawn),"inconclusive: 39.8 µM [inhibitor, single point]",–
c1ccc(Cc2nnc(-c3ccccc3)o2)cc1,"inconclusive: 10 µM [inhibitor, partial curve, poor fit]",–
Cc1cc(C)cc(N2C(=O)NC(=O)/C(=C\c3cccn3-c3ccccc3)C2=O)c1,–,inactive: -4.83%
Cc1cc(S(=O)(=O)C(CNC(=O)COc2ccc(Cl)cc2)c2cccs2)ccc1F (stereo not drawn),–,inactive: -6.48%
NCCSCc1ccccc1Cl,–,inactive: -13.8%
O=C(COc1cccc2ccccc12)Nc1nc2ccccc2[nH]1,active: 25.1 µM,–
CCCCNC(=O)C1=C(N)C(C(=O)Nc2ccc(C)c(S(=O)(=O)N3CCCCC3)c2)SC1=Nc1ccc(C)cc1C (stereo not drawn),active: 7.94 µM,–
Cc1ccc2[nH]c(CSc3nnc(NC(=O)c4ccc(Cl)cc4)s3)cc(=O)c2c1,–,inactive: -8.95%
O=C(NCCc1cn2ccsc2n1)C1CCCCC1,active: 12.6 µM,–
Cc1ccc(NC(=O)[C@@H](c2ccccc2)N2Cc3ccccc3C2=O)cc1,–,inactive: 11.8%
COc1ccc(NS(=O)(=O)c2cc(NC(=O)/C=C/c3cc(OC)ccc3OC)ccc2N2CCCCC2)cc1,active: 6.31 µM,–
CCC(C)NC(=O)CCc1c(C)nc2nc(-c3cc(OC)cc(OC)c3)nn2c1C (stereo not drawn),"inconclusive: 31.6 µM [activator, single point]",–
Cc1cccc(N2CCN(S(=O)(=O)c3cc(C(=O)Nc4ccccc4Cl)ccc3F)CC2)c1C,"inconclusive: 39.8 µM [inhibitor, single point]",–
Cc1onc(-c2ccccc2)c1C(=O)Nc1nnc(N(C)Cc2ccccc2)s1,"inconclusive: 31.6 µM [inhibitor, single point]",–
Cc1ccc(NC(=O)CS(=O)CC(=O)N(c2ccccc2)C(C)C(=O)NC2CCCC2)cc1 (stereo not drawn),"inconclusive: 25.1 µM [activator, single point]",–
Cc1ccc(C)c(-n2cc(-c3ccc(Cl)cc3)nc2SCC(=O)NC2CCS(=O)(=O)C2)c1 (stereo not drawn),"inconclusive: 39.8 µM [activator, single point]",–

Compound,Potency,"max response, negative = inhibition"
COc1ccc(CCNC(=O)C(=O)NCC(c2ccco2)S(=O)(=O)c2ccc(F)cc2)cc1 (stereo not drawn),–,inactive: 8.91%
CCOC(=O)CCSc1nc(-c2ccc3c(c2)OCO3)cc(C(F)(F)F)c1C#N,"inconclusive: 39.8 µM [inhibitor, single point]",–
Fc1cccc(-c2cc3nc(-c4ccccc4)cc(N4CCC5(CC4)OCCO5)n3n2)c1,"inconclusive: 39.8 µM [inhibitor, single point]",–
Cc1ccc2cc(CN(CC3CCCO3)S(=O)(=O)c3ccccc3)c3nnnn3c2c1 (stereo not drawn),"inconclusive: 39.8 µM [activator, single point]",–
CCOCc1ccccc1Nc1ncnc2onc(-c3ccc(Cl)cc3)c12,–,inactive: 1.01%
COc1cc(C)c(C)cc1S(=O)(=O)Nc1cccc(-c2ccc(N3CCOCC3)nn2)c1,"inconclusive: 31.6 µM [activator, single point]",–
O=S(=O)(Nc1cccc(-c2ccc(N3CCCCCC3)nn2)c1)c1cccc(F)c1,"inconclusive: 39.8 µM [inhibitor, single point]",–
COc1ccc(C(=O)Nc2ccccc2-c2nnn(CC(=O)Nc3ccc4c(c3)OCCO4)n2)cc1,"inconclusive: 25.1 µM [inhibitor, single point]",–
O=C(Cn1ncc2c3ccccc3n(Cc3cccc(Cl)c3)c2c1=O)NC1CCCCCC1,"inconclusive: 0.199 µM [inhibitor, single point]",–
CCOc1ccccc1NC(=O)CCn1nc(C)c(S(=O)(=O)N2CCCCC2)c1C,"inconclusive: 39.8 µM [activator, single point]",–
Cn1ccc2c(OCC(=O)Nc3cc(C(F)(F)F)ccc3Cl)cccc2c1=O,–,inactive: 3.79%
CCn1c(/C=C2\C(=O)N(C)c3ccccc32)nc2ccccc2c1=O,"inconclusive: 39.8 µM [activator, single point]",–
CC(=O)Nc1sc(/C(C#N)=C/c2ccc(Cl)c(Cl)c2)nc1-c1ccc(C)cc1,"inconclusive: 7.94 µM [inhibitor, full curve]",–
Cc1ccc(-c2n[nH]c(=O)c3ccccc23)cc1S(=O)(=O)Nc1ccccc1,"inconclusive: 39.8 µM [inhibitor, single point]",–
CC(=O)NS(=O)(=O)c1ccc(NC(=O)C(Sc2ccccc2)c2ccccc2)cc1 (stereo not drawn),"inconclusive: 31.6 µM [activator, single point]",–
Cc1cccc(N2CCN(C(=O)CCCCn3c(=O)[nH]c4ccsc4c3=O)CC2)c1C,"inconclusive: 39.8 µM [activator, single point]",–
COc1ccc(/C=C/c2nc(C)c(-c3ccccc3)c(=O)[nH]2)cc1OC,"inconclusive: 39.8 µM [activator, single point]",–
COc1ccc(C2CC(c3ccccc3)=NN2S(=O)(=O)c2ccc(C)cc2)c(OC)c1 (stereo not drawn),"inconclusive: 39.8 µM [inhibitor, single point]",–
CCCCOc1cccc(C(=O)N(Cc2sccc2C)C2CCS(=O)(=O)C2)c1 (stereo not drawn),"inconclusive: 31.6 µM [activator, single point]",–
COc1cc2c(cc1NC(=O)C1CCCO1)oc1ccccc12 (stereo not drawn),–,inactive: -6.05%
COCCCNC(=O)c1oc2ccc(S(=O)(=O)N(C)C3CCCCC3)cc2c1C,"inconclusive: 39.8 µM [activator, single point]",–

Compound,Potency,"max response, negative = inhibition"
COc1ccc(Br)cc1C(=O)NC(=S)Nc1cc(-c2nc3ccccc3[nH]2)ccc1C,active: 10 µM,–
Cc1ccccc1C(=O)NC(=S)Nc1ccc(S(=O)(=O)N(C)c2ccccc2)cc1,"inconclusive: 31.6 µM [inhibitor, single point]",–
O=c1c(-c2ccc(Cl)cc2)nc2cnc(N3CCOCC3)nc2n1CCc1ccccc1,–,inactive: 4.18%
COc1cc(C)c2c(c1C=O)Oc1c(c(C)c(O)c3c1C(O)OC3=O)OC2=O (stereo not drawn),"inconclusive: 39.8 µM [activator, single point]",–
CCOc1ccccc1N=C1SC(CC(=O)Nc2ccc(OC)cc2OC)C(=O)N1CCC1=CCCCC1 (stereo not drawn),"inconclusive: 39.8 µM [inhibitor, single point]",–
COc1cc(NC(=O)CSc2ncc(S(=O)(=O)c3ccc(Br)cc3)c(=O)[nH]2)cc(OC)c1,"inconclusive: 20 µM [activator, single point]",–
Cc1c2cnn(CC(=O)NCCc3ccccc3)c(=O)c2c(C)n1Cc1ccccc1,–,inactive: -13.7%
COC(=O)[C@@]1(Cc2ccc(F)cc2)[C@H]2c3cc(C(=O)N(C)C)n(C)c3C[C@H]2CN1C(=O)c1ccccc1,"inconclusive: 39.8 µM [activator, single point]",–
Cc1ccc(C(=O)Nc2ccc(N3CCN(S(C)(=O)=O)CC3)cc2)cc1,active: 15.8 µM,–
COc1cc(OC)c(C(=O)OC(C)C(=O)Nc2cccc(C(F)(F)F)c2)cc1OC (stereo not drawn),"inconclusive: 39.8 µM [activator, single point]",–
CC1CCN(c2ccc(/C=N\Nc3nncn3N)cc2[N+](=O)[O-])CC1,active: 25.1 µM,–
CCOc1ccc(CCNC(=O)Cn2nc(-c3ccc(C)cc3)ccc2=O)cc1OCC,"inconclusive: 39.8 µM [activator, single point]",–
N[C@H](Cc1cnc[nH]1)C(=O)O,–,inactive: 2.77%
CCN(CC)S(=O)(=O)c1ccc2c(c1)N(CC(=O)N1CCN(c3ccc(F)cc3)CC1)C(=O)CO2,"inconclusive: 39.8 µM [activator, single point]",–
CCCOc1ccc(-c2nn(-c3ccccc3)cc2/C=C2\SC(N)=NC2=O)cc1,"inconclusive: 7.94 µM [inhibitor, full curve, poor fit]",–
CCCN(CCC)C(=O)Cn1c(=O)c2ccccc2n2c(=S)sc(-c3ccccc3C)c12,"inconclusive: 31.6 µM [inhibitor, single point]",–
Cc1cccc(NC(=O)C2CC(=O)N/C(=N/N=C/c3ccco3)S2)c1 (stereo not drawn),"inconclusive: 31.6 µM [inhibitor, single point]",–
COc1ccc(C)cc1NC(=O)CCC(=O)Nc1nnc(C(F)(F)F)s1,"inconclusive: 39.8 µM [inhibitor, single point]",–
CCOC(=O)c1c(C)c(-c2ccccc2)n(CC(=O)N2CCCC2)c1C,"inconclusive: 31.6 µM [activator, single point]",–
COc1ccc(-n2c(COc3cccc4ccccc34)nnc2SCC#N)cc1,"inconclusive: 39.8 µM [activator, single point]",–
O=C(CCCCCCN1C(=O)c2ccccc2C1=O)N1CCC(c2ccccc2)C1 (stereo not drawn),"inconclusive: 39.8 µM [activator, single point]",–
